Consider 56 variants from the RNAGym collection of RNA variant scans (doi:10.7554/elife.90254).

The source gives no read counts; variants with many changes may rest on few reads.

B1: LINE1-mini (parent)
chain: GGCAGAGCUCAACACAGCGUGGCAAAGUGGCUGUGGCUAGACUGCC

The variants in this data set derive from B1. Briefly: self-cleavage, relative activity (ratio to wild type); higher = more cleavage; in vitro, sequencing; the parent is a self-cleaving ribozyme.
Take GGCAGAGAUCAACACAGCGUGGCAAAGCAGCUGUUGCUAGACUGCC [C8A U28C G29A G35U]: the self-cleavage was determined as 0.14. Then GGCAGAGAUCAACACAGCGUGGCAAAGGUGCUGUUGCUAGACUGCC [C8A U28G G29U G35U], with 0.32; and GGCAGAGAUCAACACAGCGUUGCAAAGUGGUUGUGGCUGGACUGCC [C8A G21U C31U A39G], with 0.02. The figure for GGCAGAGACCAACACAGCGUGGCAAAGCGGCUGUGGCCAGACUGCC [C8A U9C U28C U38C] is 0.07; for GGCAGAGAACAACACAGCGUGGCAAAGUGGCUGUGCCUAGACUGCC [C8A U9A G36C] it is 0.05. The figure for GGCAGAGGUCAUCACAGCGUGGCAAAUUGGCUGUGGCUAGACUGCC [C8G A12U G27U] is 0.06; for GGCAGAGAUCAACACAGCGUGGCAAAGUUUCUGUGGCUUGACUGCC [C8A G29U G30U A39U] it is 0.19; for GGCAGAGAUCAACACAGCGCGGCAAAGUGGCAGUGGCUAGACUGCC [C8A U20C U32A] it is 0.03. Regarding GGCAGAGAUCAACACAGCGUGGGAAAGGGGCUGUGGCUAGACUGAC [C8A C23G U28G C45A], the self-cleavage is 0.09. Then GGCAGAGAUCAACACAGCGUGGGAAAGUGGCUAUGGUUAGACUUCC [C8A C23G G33A C37U G44U], with 0.1; and GGCAGAGAUCAACACAGCGUGGCAAAGCGGCUGUGGCUACACGGCC [C8A U28C G40C U43G], with 0.06; and GGCAGAGAUCAACACAGCGUGACAAAGUGGCUGUGGCUAAACGGCC [C8A G22A G40A U43G], with 0.17. GGCAGAGAUCAACACAGCGUGGCAAAGUUGCUGUGGCUAGUCUGCC [C8A G29U A41U]: the self-cleavage is 0.2.

As to GGCAGAGGUCGACACAGCGUGUCAAAGUGGCUGUAGCUAGACUGCC [C8G A11G G22U G35A], the self-cleavage was determined as 0.03. The figure for GGCAGAGGUCUACACAGCGUGGCAAAGUGGCUGUGUCUAGACUGCA [C8G A11U G36U C46A] is 0.01; for GGCAGAGAUCAACACAGCGCAGCAAAGUGCCAGUGGCUAGACUUCU [C8A U20C G21A G30C U32A G44U C46U] it is 0.05.

Regarding GGCAGAGAUCAACACAGCUUGGCUAAGUGGCUUUGGCUAGACUGCC [C8A G19U A24U G33U], the self-cleavage is 0.08. As to GGCAGAGAUCAACACAGCGUGGCAAAAUGGCUGUGGCCAGACUCCC [C8A G27A U38C G44C], the self-cleavage amounted to 0.12.

GGCAGAGAUCAACACAGCAUGCCAAAGUGGCUGUGGCUAGACUGCC [C8A G19A G22C]: the self-cleavage is 0.14.

With GGCAGAGAUCAACACAGCUUGGCAAAGUGGCUGUGGCUAGGCUGCC [C8A G19U A41G], the self-cleavage is 0.19.

With GGCAGAGAUCAACACAGCGUGGCAAAGUGGCUGCAGCAAGACUGCC [C8A U34C G35A U38A], the self-cleavage amounted to 0.09.

In the case of GGCAGAGACCAACACAGCGUGGGAAAGUGGCUGUCGCUAGGCUGCC [C8A U9C C23G G35C A41G], the self-cleavage stood at 0.01. For GGCAGAGAGCAAUACAGCGUGGCAAAGUGGCUGUGGCUAGACUGCC [C8A U9G C13U], the self-cleavage is 0.03. The figure for GGCAGAGAUCAACACAGCGUGCCAAAGCGGCUGUGGCUAGACUGCC [C8A G22C U28C] is 0.1; for GGCAGAGAACAACACAGCGUGGCAAAGUUGCUGUGGCUAGACUGCC [C8A U9A G29U] it is 0.22; for GGCAGAGAUCAACACAACGUGGCAAAGUGGGUGUGGCUAGACUGCC [C8A G17A C31G] it is 0.16. With GGCAGAGAUCAACACAGCGGGGCAAAGUGGCUGUAGCUAGACUGCC [C8A U20G G35A], the self-cleavage is 0.44. Then GGCAGAGAACAACACAGCGUGGUAAAGUGGCUGUGGCUAGACUGCC [C8A U9A C23U], with 0.28. For the variant GGCAGAGAUCAACACAGCGUGGCAAAGCGGCUGUGCCUAGACUGCC [C8A U28C G36C], the self-cleavage is 0.04.

With GGCAGAGAUCAACACAGCGUGGAAAAGUGGCUGUGGGUAGACUGCC [C8A C23A C37G], the self-cleavage amounted to 0.03. Then GGCAGAGAUCAACACAGCUUGGCAAAGUGACUCUGGCUAGACUGCC [C8A G19U G30A G33C], with 0.04; and GGCAGAGAUCAACACAGCGUGGCAAAUUCGCUGUGGCUAGACUGCC [C8A G27U G29C], with 0.06; and GGCAGAGGUCCACACAGCGUGGCAAAGUGGCUUUGGGGGGACUGCU [C8G A11C G33U C37G U38G A39G C46U], with 0.

Regarding GGCAGAGAUCAACACAGCGCGGUCAAGUGGCUGUGGCUAGACUGCC [C8A U20C C23U A24C], the self-cleavage stood at 0.06. Then GGCAGAGAUCAACACAGCGUGGCAAAGUGGCUGCGGCUAGAGUGCU [C8A U34C C42G C46U], with 0.07; and GGCAGAGAUCAACACAGCGUGGCAAAGUGGCGGUGGCUGGACUGCC [C8A U32G A39G], with 0.08. Then GGCAGAGAUCAACACAGCGUGGCAAAGUGGCUGGGGCAAGACUGCC [C8A U34G U38A], with 0.47. Then GGCAGAGAUCAACACAGCGUGGCAAAGUGUCUGUGGCUAGAUUGCC [C8A G30U C42U], with 0.07. GGCAGAGGUCAGCACAGCGUGGCAAAAUGGCAGUGGCUAGACUCCC [C8G A12G G27A U32A G44C]: the self-cleavage was found to be 0.02. Turning to GGCAGAGAUCAACACAGCGUGGCAAAGGGGCUGUAGCUAGCCUGCC [C8A U28G G35A A41C], the self-cleavage stood at 0.14. The figure for GGCAGAGAUCAACACAGCGUGGCAAACUGGCUGUGGCUAGACUGCG [C8A G27C C46G] is 0.21; for GGCAGAGAUCAACACAGCGUGGCAAAGUGGCUGUGACUUGACUGCC [C8A G36A A39U] it is 0.09.

With GGCAGAGAUCAACACAGCGUGGCAAAGUGGCUGUGGCUAUUCUGCC [C8A G40U A41U], the self-cleavage came out at 0.12. Then GGCAGAGAUCAACACAGCGUUGCAAAGUGGCUGUGGCUAGACUACC [C8A G21U G44A], with 0.41. Then GGCAGAGAUCAACACAGCGCGGCAAAGUGGCUUUGGCUAGAAUGCC [C8A U20C G33U C42A], with 0.11. The figure for GGCAGAGAUCAACACAGCUUGGCAAAGUGGCUGUGGCUAGACGACA [C8A G19U U43G G44A C46A] is 0.06; for GGCAGAGAUCAACACAGCGUCGCAAAGUGGAUGGGGCUAUACUGCC [C8A G21C C31A U34G G40U] it is 0.03; for GGCAGAGAUCAACACAGCGUGGCAAAGUGGCUUUGGCUAGACUGCA [C8A G33U C46A] it is 0.28. With GGCAGAGAUCAACACAGCGUGGCAAAGUGGCUGUUGCUAGACUACA [C8A G35U G44A C46A], the self-cleavage stood at 0.1. Then GGCAGAGAUCAACACAGCGGGGCAAAGUGGCUGUGGCUAGUAUGCC [C8A U20G A41U C42A], with 0.08. Then GGCAGAGAUCAACACAGCGUGGCAAAGUGGCUGUGACUAGACUCCC [C8A G36A G44C], with 0.11; and GGCAGAGAUCAACACAUCGUGGCAACGUGGCUGUGGCUAGACUGCC [C8A G17U A26C], with 0.24. Regarding GGCAGAGAUCAACACAGCGUGGCAAAGUGUCUGUGGCUAAACUGCC [C8A G30U G40A], the self-cleavage came out at 0.31. Then GGCAGAGAUCAACACAGCGUGGCAAAGUGGCUGUGGUUAGAUUGCC [C8A C37U C42U], with 0.07; and GGCAGAGAUCAACACAGCGUGGCAAAGUGGCCGUUGCUAGAAUGCC [C8A U32C G35U C42A], with 0.18. The figure for GGCAGAGAACACCACAGAGUGGCAAAGUGGCUGUGGCUAUACUGCC [C8A U9A A12C C18A G40U] is 0.02.
